Experimental data from PubChem BioAssay AID463173 (ICCB-Longwood Screening Facility, Harvard Medical School, 2010).
Screen size: about 52,000 compounds; about 4,300 (8.3%) were called active. No stated cut-off is given here; in the data, active means survival mostly below about 52% (no sharp cut-off); inactive means mostly above about 56%. The list shows a part of the results.

Tested on: DeltatarO mutant
Experiment: S. aureus survival, RN4220 and DeltatarO strains – OD600, teichoic acid synthesis inhibitors, primary screen (AID 463173)
Details: S. aureus RN4220 wild type/DeltatarO growth, OD600, 18 h, hits give low values, screened at 18.75 µg/mL (by protocol)

Structure (SMILES)	survival
Cc1nn(C(=O)c2ccc(Cl)cc2)c(C)c1Sc1ccc(Cl)cc1	active: 51%
CC(=O)c1sc2c(c1C)c(=O)n(-c1ccc(Cl)cc1)c(=O)n2Cc1cc(=O)n2cc(Cl)ccc2n1	inactive: 58%
O=C(Nc1ccc(Br)cc1)c1ccc2c3c(onc13)-c1ccccc1C2=O	inactive: 72%
COc1ccc2oc(=O)c(-c3csc(/C(C#N)=C/c4ccc(F)cc4)n3)cc2c1	inactive: 76%
COC(=O)C1=C(CN(C)CCc2ccc(OC)c(OC)c2)NC(=O)NC1c1cccc(OC)c1 (stereo not drawn)	inactive: 80%
CCOc1ccc(NC(=O)Cn2c(=O)n(-c3ccc(C)cc3)c(=O)c3cc(OC)c(OC)cc32)cc1	inactive: 92%
COc1ccccc1N1CCN(C(=O)C2CCN(S(=O)(=O)c3cnc[nH]3)CC2)CC1	inactive: 99%
CCOC(=O)c1c(NC(C)=O)c2c3c(sc2n1Cc1nc(-c2ccccc2OCC)oc1C)CCCC3	inactive: 79%
CCCCCn1nc(C)c(/C=N\NC(=O)c2cccs2)c1C	inactive: 69%
COc1cccc(NC(=O)Cn2cc(C(=O)C3CCCCC3)c3ccccc32)c1	inactive: 79%
Cc1ccc(C)c(N2CCN(C(=O)c3cnc4c(-c5ccccc5)c(C)nn4c3C)CC2)c1	inactive: 89%
Cc1ccc(/C=C(\C#N)C(=O)Nc2cc(C)ccc2C)cc1	inactive: 64%
COc1cc(C)c(Cl)cc1S(=O)(=O)NCCc1c(C)[nH]c2ccccc12	active: 37%
Cc1ccc(C)c(CN2C(=O)c3ccccc3S(=O)c3ccc(C(=O)NCc4ccccc4Cl)cc32)c1 (stereo not drawn)	inactive: 122%
COc1cccc(CNC(=O)CN2C(=O)N(c3cc(C)ccc3C)S(=O)(=O)c3ccccc32)c1OC	inactive: 73%
COc1cccc(NC(=O)c2sc3nc(N4CCOCC4)c4c(c3c2N)CC(C)(C)OC4)c1	inactive: 96%
Cc1cccc(NC(=O)NCCn2c(=O)oc3ccc(C)cc32)c1	inactive: 71%
CCC(C)(C)n1nnnc1CN(Cc1ccc(Cl)cc1)CC1CCCO1 (stereo not drawn)	inactive: 76%
CCN(CC)CCC(=O)N1c2ccccc2CCc2ccc(NC(=O)OC(C)C)cc21	inactive: 84%
Cc1oc2c(c1C(=O)NCc1cccc(Br)c1)C1=NCCN1C=N2	inactive: 97%
COc1cc(NC(=O)C(CC(C)C)NS(=O)(=O)c2ccc3c(c2)CCCC(=O)N3)cc(OC)c1 (stereo not drawn)	inactive: 67%
Cc1ccc(CNC(=O)CCCn2c(=O)c3ccccc3n(CC(=O)C(C)(C)C)c2=O)cc1	inactive: 89%

Structure (SMILES)	survival
CCOC(=O)Cn1c(=O)n(CC2CCCO2)c2nc(-c3ccc(OC)cc3OC)nc(C(N)=O)c21 (stereo not drawn)	inactive: 76%
O=C(CC1N=C2c3ccccc3N=C(SCc3ccc(Cl)cc3)N2C1=O)NCCc1ccccc1 (stereo not drawn)	inactive: 73%
CCOC(=O)c1c(C)[nH]c(C)c1S(=O)(=O)NCC(=O)Nc1cccc(C(F)(F)F)c1	inactive: 88%
CC1CCCN(C(=O)Cn2c(=O)oc3cc(S(=O)(=O)N4CCCCC4)ccc32)C1 (stereo not drawn)	inactive: 83%
CCOc1ccc(C2c3c(-c4ccc(C)cc4)n[nH]c3C(=O)N2c2ccc(Cl)cc2)cc1 (stereo not drawn)	inactive: 91%
CCOC(=O)c1c(NC(=O)c2cc(CC)on2)sc(C)c1C	inactive: 144%
O=C(Nc1ccc(-c2cc(C(F)(F)F)nn2-c2ccccc2)cc1)c1cccc(F)c1	active: 26%
CCN1CCC(N(Cc2cccc(OC)c2)C(=O)Nc2cccc(C(F)(F)F)c2)CC1	inactive: 102%
CCN(CC)c1ccc(C(=O)NCc2ccc3c(c2)CCN3C(=O)c2ccccc2)cc1	inactive: 83%
Cc1ccc2c(c1)N(C(=O)CCC(=O)Nc1ccccc1Cl)CC(C)O2 (stereo not drawn)	inactive: 105%
O=c1cc(CSc2ncn[nH]2)[nH]c2c(Cl)cccc12	inactive: 98%
CCOc1ccccc1NC(=O)c1cn(C2CCCC2)c(=O)c2c1c1ccccc1n2C	inactive: 122%
COc1ccccc1NC(=O)C1=C(C)Nc2nc(SCc3ccccc3)nn2C1c1ccccn1 (stereo not drawn)	inactive: 65%
CN(C)c1nc(Nc2ccccc2)nc(N(C)C)n1	inactive: 78%
COc1ccc(-n2c(=O)c3sc4ccccc4c3n(CC(=O)Nc3cccc(C)c3)c2=O)cc1	inactive: 72%
CCc1cc(C#N)c(O)cn1	inactive: 91%
COc1ccccc1NC(=O)c1cc(S(=O)(=O)N(C)C2CCCCC2)ccc1F	inactive: 85%
O=C(/C=C/c1ccco1)NC(=S)Nc1ccccc1O	inactive: 100%
Cc1ccc(NC(=O)C(Cc2ccccc2)NS(=O)(=O)c2ccc3c(c2)oc(=O)n3C)c(Cl)c1 (stereo not drawn)	inactive: 95%
CCOC(=O)N1CCc2c(sc3c2c(=O)n(CCc2ccccc2)c(=O)n3Cc2cc(C)ccc2C)C1	inactive: 75%
COCCNC(=O)Cn1cc(S(=O)(=O)Cc2ccccc2Cl)c2ccccc21	inactive: 124%
Cc1cccc(-c2nc(SCC(=O)Nc3cc(C)on3)c3c(=O)n(C)c(=O)n(C)c3n2)c1	inactive: 68%

Structure (SMILES)	survival
O=C(CSc1nc2ccccc2c(=O)[nH]1)c1ccc(O)cc1O	inactive: 83%
COCCCNC(=O)c1ccc2c(c1)N=C(C)c1c(C)ccc(C)c1S2	inactive: 69%
COc1ccc(N2CCN(c3ccc(-c4nc(-c5ccccc5C)no4)cc3[N+](=O)[O-])CC2)cc1	inactive: 63%
Cc1ccc(NC(=O)N2CCC(N3CCN(Cc4ccccc4)C(=O)C3=O)CC2)cc1Cl	inactive: 75%
Cc1nnc(NC(=O)CSc2nccn2-c2cccc(Cl)c2)s1	inactive: 77%
CC1CCCN(S(=O)(=O)c2cc3c(cc2Cl)NC(=O)CO3)C1 (stereo not drawn)	inactive: 94%
O=C(O)CC1NC(=O)N(c2ccccc2)C1=O (stereo not drawn)	inactive: 94%
Cc1nc2c(c(C)c1CCC(=O)Nc1cccc(C(F)(F)F)c1)c(=O)n(C)c(=O)n2C	inactive: 84%
O=C(CCC(=O)N1CC2CCCN2c2ccccc21)NCc1ccccc1Cl (stereo not drawn)	inactive: 69%
COc1ccc(C(=O)Nc2ccccc2C(=O)OCc2cc(=O)n3c4c(sc3n2)CCCC4)cc1	inactive: 72%
COc1cc(OC)c(Nc2nc3ccc(C)cc3n3nnnc23)cc1Cl	inactive: 130%
CN1C(=O)CC(N2CCN(C/C=C/c3ccccc3)CC2)C1=O (stereo not drawn)	inactive: 78%
COc1ccccc1CNc1nc2nc(C)c(Cl)c(C)n2n1	inactive: 100%
CO/N=C/c1ccc(OC)c(OC)c1	inactive: 90%
COC(=O)c1c(NC(=O)c2cccc(OC)c2)sc2c1CCC(C(C)(C)C)C2 (stereo not drawn)	active: 43%
COc1ccc(CCN(Cc2nc3ccccc3c(=O)[nH]2)C(=O)c2ccco2)cc1	inactive: 101%
Nc1nonc1-c1nc2ccccc2n1CC(=O)Nc1ccccc1C(=O)O	active: 45%
CCOc1ccccc1N(CC)C(=O)c1ccc2c(=O)n3c(nc2c1)CCCCC3	inactive: 112%
Cc1cccc(C)c1NC(=O)CSc1nc(-c2cccs2)cc(C(F)(F)F)n1	inactive: 62%
Cc1cn2c(=O)cc(COc3ccc(C(C)(C)C)cc3)nc2s1	inactive: 70%
CC(C)CCn1c(SCc2c(F)cccc2Cl)nc2ccsc2c1=O	inactive: 94%
O=C(Cn1c(=O)c2cccn2c2ccc(F)cc21)NCc1cccc(Cl)c1	inactive: 80%

Structure (SMILES)	survival
Cc1cc2nn(-c3ccccc3)nc2cc1NC(=O)Cc1ccc(Cl)cc1	inactive: 89%
CC(C)N(Cc1ccccc1)S(=O)(=O)c1ccc(N2CCCCS2(=O)=O)cc1	inactive: 85%
CCCNS(=O)(=O)c1ccc(OCC(=O)N2CCCCC2)cc1	inactive: 86%
CN(C)S(=O)(=O)c1ccc(C(=O)N(Cc2cccnc2)c2nc3c(F)cc(F)cc3s2)cc1	inactive: 86%
N#Cc1ccccc1Cn1c(SCC(=O)NCc2ccccc2)nc2ccccc21	inactive: 72%
CN(C)S(=O)(=O)N1CCC(N2CCN(Cc3ccc(F)cc3)C(=O)C2=O)CC1	inactive: 113%
CC1=C(C(=O)N2CCCCC2)C(c2ccc(N(C)C)cc2)C2=C(CCCC2=O)N1 (stereo not drawn)	inactive: 95%
CCc1cccc2c(-c3ccccc3)nc(SCC(=O)Nc3ccc(OC)cc3)nc12	inactive: 82%
CCOc1ccc2nc(NC(=O)c3nc(SC(C)C)ncc3Cl)sc2c1	active: 41%
CC1CCN(C(=O)Cn2c(=O)n(-c3ccc(Cl)cc3)c(=O)c3c4c(sc32)CCC4)CC1	inactive: 64%
COc1ccc(-c2nsc(NC(=O)c3ccccc3Br)n2)cc1	active: 34%
CC(C)(C)NC(=O)c1cccc(C(=O)NC(C)(C)C)c1	inactive: 107%
COc1cc(NC(=O)C2CCCN(S(=O)(=O)c3cn(C)cn3)C2)cc(OC)c1 (stereo not drawn)	inactive: 95%
N#CC(C#N)=Cc1cn(CC(=O)Nc2ccccc2)c2ccccc12	inactive: 66%
CC(=O)N1CCc2c(sc3c2c(=O)n(CCc2ccccc2)c(=O)n3Cc2ccc(F)cc2)C1	inactive: 80%
CN(C)S(=O)(=O)N1CCN(Cc2ccccc2)CC1	inactive: 91%
CCOc1ccc(NC(=O)c2sc3nc(-c4ccc(OC)cc4)cn3c2C)cc1	inactive: 85%
Cc1ccccc1NC(=O)Cn1c(=O)n(CCCCCC(=O)NCc2ccc3c(c2)OCO3)c(=O)c2sccc21	inactive: 84%
Cc1c(Cl)cccc1NC(=O)CSc1nc(=O)n(CCN2CCOCC2)c2c1CCC2	inactive: 78%
CCc1ccc(-n2c(CCC(=O)O)ccc2-c2cccs2)cc1	inactive: 52%
COc1ccc(-n2ccn(CC(=O)Nc3ccccc3C(F)(F)F)c(=O)c2=O)cc1OC	inactive: 80%
Cc1nnc(N2CCN(C(=O)Nc3cc(F)ccc3F)CC2)c2nn(-c3ccc(Cl)cc3)c(C)c12	inactive: 88%
